# Hit rate of the full screen: of about 310,000 compounds, about 14,000 (4.5%) showed an effect of 50% or more. The effect is printed as a negative number. Some of the results follow.
# Biological target: human ether-à-go-go-related gene (hERG) potassium channel (human, UniProt Q12809)
# Assay: primary screen, population patch clamp on CHO cells stably expressing hERG
# 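Further: peak tail current of the secondary pulse compared with the same well before compound.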
# human ether-à-go-go-related gene (hERG) potassium channel, sequence (Q12809 whole entry, looked up): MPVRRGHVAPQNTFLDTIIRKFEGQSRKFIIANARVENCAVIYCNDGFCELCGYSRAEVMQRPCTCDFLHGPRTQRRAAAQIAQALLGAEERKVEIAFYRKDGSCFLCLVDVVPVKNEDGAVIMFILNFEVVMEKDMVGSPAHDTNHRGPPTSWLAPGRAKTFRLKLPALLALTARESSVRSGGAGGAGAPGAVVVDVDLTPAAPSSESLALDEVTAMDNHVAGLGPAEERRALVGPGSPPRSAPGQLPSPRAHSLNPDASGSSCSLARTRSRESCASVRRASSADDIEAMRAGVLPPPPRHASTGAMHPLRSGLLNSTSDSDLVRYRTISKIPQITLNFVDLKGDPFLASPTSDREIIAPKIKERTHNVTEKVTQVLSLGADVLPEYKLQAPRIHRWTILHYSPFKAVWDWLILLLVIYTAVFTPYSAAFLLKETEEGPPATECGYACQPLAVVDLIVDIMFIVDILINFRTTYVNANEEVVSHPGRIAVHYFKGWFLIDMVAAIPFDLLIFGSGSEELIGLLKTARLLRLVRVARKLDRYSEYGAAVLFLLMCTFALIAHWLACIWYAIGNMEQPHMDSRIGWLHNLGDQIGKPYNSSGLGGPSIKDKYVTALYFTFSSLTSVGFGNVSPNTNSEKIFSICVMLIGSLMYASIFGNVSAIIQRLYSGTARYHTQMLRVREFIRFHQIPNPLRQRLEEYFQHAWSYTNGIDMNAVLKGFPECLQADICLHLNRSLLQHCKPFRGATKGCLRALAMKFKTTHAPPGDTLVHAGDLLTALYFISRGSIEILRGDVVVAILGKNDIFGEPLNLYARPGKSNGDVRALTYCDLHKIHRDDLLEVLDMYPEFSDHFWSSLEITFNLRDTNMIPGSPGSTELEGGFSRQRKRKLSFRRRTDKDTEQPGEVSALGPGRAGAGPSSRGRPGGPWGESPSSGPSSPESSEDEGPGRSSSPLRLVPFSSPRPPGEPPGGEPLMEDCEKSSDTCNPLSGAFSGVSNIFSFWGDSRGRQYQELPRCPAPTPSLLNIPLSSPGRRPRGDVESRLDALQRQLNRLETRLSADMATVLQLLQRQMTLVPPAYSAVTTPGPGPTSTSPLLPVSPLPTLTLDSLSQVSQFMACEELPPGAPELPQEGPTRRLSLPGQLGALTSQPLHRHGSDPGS
row,SMILES,"hERG current change (%, negative = inhibition) at 10uM"
1,COc1ccc(-c2coc3c(CN4CCOCC4)c(O)ccc3c2=O)cc1,-21.1%
2,CCCCN(c1ccc(C(=O)OC)cc1)S(=O)(=O)c1ccccc1,-9.02%
3,CCOCCCNC(=O)C(NC(=O)Cc1cccs1)c1ccccc1 (stereo not shown),3.89%
4,CC(=O)Nc1ccc(C(=O)CSc2nnnn2C(C)C)cc1,16.7%
5,CC(c1ccccc1)n1cnc2ccccc2c1=O (stereo not shown),18.5%
6,Cn1nc(C(F)(F)F)c(C(=O)Nc2ccc(Cl)cc2)c1Cl,-22.1%
7,O=C(Nc1ccc(OCC(=O)N2CCOCC2)cc1)Nc1cccc(Cl)c1,-7.18%
8,COC(=O)CNc1nc(-c2ccccc2F)nc2ccccc12,3.08%
9,CC1(C)CC(c2nc(-c3ccc(Cl)cc3)cs2)CCS1.Cl (stereo not shown),7.39%
10,COC(=O)c1cccc(Nc2nc(-c3cccnc3)nc3ccccc23)c1,-2.49%
11,Nc1ccc(Cl)cc1C(=O)OCC(=O)NC1CCS(=O)(=O)C1 (stereo not shown),11.8%
12,COc1ccc(C(=O)NNc2cc(C)nc(NNC(=O)c3ccc(OC)cc3)n2)cc1,7.94%
13,Cc1cc(NCCc2ccccc2F)n2ncnc2n1,-1.21%
14,CC(NC(=O)C(=O)N1CCOCC1)C(c1cccs1)N1CCN(c2ccccc2F)CC1 (stereo not shown),-13.7%
15,Cc1ccc(Oc2nc3ccccn3c(=O)c2/C=C(\C#N)C(=O)NC2CCS(=O)(=O)C2)c(C)c1 (stereo not shown),3.83%
16,COc1ccc(C(CNC(=O)c2ccc(S(=O)(=O)N(C)C)cc2)N2CCCCC2)cc1 (stereo not shown),-9.82%
17,COc1cccc(COC(=O)C2CC(=O)N(Cc3ccco3)C2)c1OC (stereo not shown),12.3%
18,CCCOc1c(Br)cc(C(=O)OCC(=O)NC2CC2)cc1OC,8.36%
19,CCOC(=O)Nc1ccccc1C(=O)N1CCOCC1,5.87%
20,Cc1cc(C)cc(N2CC(C(=O)OCC(=O)Nc3cc(C)on3)CC2=O)c1 (stereo not shown),19.1%
21,CC(C)(C)SCCNC(=O)CN1C(=O)c2ccccc2S1(=O)=O,-5.6%
22,Nn1c(SCC(=O)NC(=O)NC2CCCC2)nnc1-c1ccccc1F,-13.3%
23,N#Cc1c(C(F)(F)F)cc(-c2ccccc2)n(N)c1=O,13.9%

row,SMILES,"hERG current change (%, negative = inhibition) at 10uM"
1,CC(C)c1onc(C(=O)N2C(C)CCCC2C)c1[N+](=O)[O-] (stereo not shown),18.8%
2,CN(C)C(=O)c1nnc(Cc2ccc(Cl)cc2)o1,15.9%
3,O=C(Nc1c2c(nn1-c1ccccc1)CS(=O)(=O)C2)c1ccc2c(c1)OCO2,3.47%
4,C=CCSc1ncccc1C(=O)NCc1ccc(C)cc1,-10.3%
5,COc1ccc(CC(=O)NCCC2=CCCCC2)cc1,15%
6,O=C1C2CCCN2C(c2cccnc2)N1c1nccs1 (stereo not shown),5.02%
7,Cc1cccc(N2CCN(C(=O)c3ccccn3)CC2C)c1 (stereo not shown),14%
8,CCCCC1=C([O-])C2N=CC=CC2=[N+](c2ccccn2)C1=O (stereo not shown),0.715%
9,CC(=O)c1c(C)[nH]c(C(=O)OCc2c(F)cccc2Cl)c1C,5.08%
10,COc1ccccc1-c1nnc(SCC(=O)NC2CCCCC2)o1,-27.4%
11,Cc1cccc(Cn2cnc3c(nnn3Cc3ccc(Cl)cc3)c2=O)c1,5.51%
12,N#Cc1ccc(Sc2ccccn2)c([N+](=O)[O-])c1,-61.5%
13,CCOC(=O)C(Cc1ccc(O)cc1)NC(=O)CCc1c[nH]c2ccccc12 (stereo not shown),0.9%
14,O=C(NCc1ccccc1)C(c1cccs1)N(Cc1cccs1)C(=O)c1cnccn1 (stereo not shown),-24.5%
15,CCSc1nnc(NC(=O)CSc2nnc(CNC(=O)c3ccccc3F)o2)s1,3.38%
16,COc1ccc(-c2nn(-c3ccccc3)cc2C(=O)N(C)CC(=O)Nc2ccc(N3CCOCC3)cc2)cc1,8.82%
17,O=[N+]([O-])c1cc(Cl)ccc1Oc1ccc(-c2nnco2)cc1,20.2%
18,COc1ccc(-c2csc(NC(=O)CN3C(=O)NC4(CCCC4)C3=O)n2)cc1OC,8.24%
19,CCN1C2=NCCCN2c2ccccc21.Cl,1.64%
20,C=CCc1cccc(CNc2nc3ccccc3n2CC)c1O,4.33%
21,CN(C)S(=O)(=O)c1cccc(COc2ccccc2C(=O)Nc2ccccc2)c1,-14.4%
22,COCCn1cnnc1SCC(=O)Nc1cccc(S(=O)(=O)N2CCCCC2)c1,-17.8%
23,Cc1cc(C(F)(F)F)nn1CC(=O)NCc1ccccc1,6.58%

# From publication PMC4336329 (PLoS ONE, 2015)
